System: E. coli strain
Experiment: cefotaxime resistance of E. coli strain containing the evMBL8 mutant gene, growth in liquid medium (OD600)
Assay type: cell-based
Details: 30° C., 0.02-2.0 mg/ml cefotaxime, 0.05 mM IPTG, 0.2 mM ZnCl2
Description: Also, the cefotaxime resistance of an E. coli strain containing the evMBL8 mutant gene was examined. For this purpose, each of an E. coli strain containing the evMBL8 mutant gene, and an E. coli strain containing no evMBL8 mutant gene, was cultured at 30° C. in 5 ml liquid medium containing 0.05 mM IPTG, 0.2 mM ZnCl2, […] kanamycin and varying concentrations (0.02-2.0 mg/ml) of cefotaxime, while the growth of the E. coli strains was analyzed with a spectrophotometer (OD600) at two-hr intervals.

B1: evMBL8 (protein)
chain: MKVEVLPALTTVAGWGEVPSNGYLVIDDGTKEAAIVDTPFTAIDTEKLADAAGKHGVEPTTVSATHWHWDCDGGNEELVKLESGPEVYGGDGRINLAKEKWLRALAHKIAHLSTLLVESLSVKCPYPGPGHSTDDICYFASKPGGPEPHPVFRGCFIKPCALPEVLDPTADEMAKALLEVLGRLPLDTRVYYGHEYTI
resistance to cefotaxime relative to E. coli strain having no metallo β-lactamase activity: at least 100 times

— patent publication US20100204450A1, “Preparation Method for a Protein With New Function Through Simultaneous Incorporation of Functional Elements” (priority 2005, published 2010)
